Data: the RNAGym collection of RNA variant scans (doi:10.1093/nar/gkz1192)
Read counts are not given, so values of variants with three or more changes are uncertain.

B1: CPEB3 Ribozyme (parent)
chain: UAACAGGGGGCCACAGCAGAAGCGUUCACGUCGCAGCCCCUGUCAGAUUCUGGUGAAUCUGCGAAUUCUGCUGUAUAUCUC

Variants of: B1
Experiment: self-cleavage, relative activity (ratio to wild type); higher = more cleavage; in vitro, sequencing
Procedure, shortened: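 Libraries of CPEB3 self-cleaving ribozyme mutants came from rounds of error-prone PCR and carried barcodes, which DNA sequencing matched to variants. In vitro transcription used T7 RNA polymerase at 37°C for 5 hours, with a further 15 min in DNase I before EDTA stopped the reaction; the ribozymes cleaved during both steps. The RNA was reverse transcribed with template switching and sequenced on Illumina. Relative activity is the cleaved/total read fraction of a variant divided by that of the unmutated ribozyme, averaged over three batches with at least 5 reads.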

Variant | self-cleavage
C12A G19U A28U A64U U67A U69G A75G | 0.04
C11U U41C U49C | 0.14
C12A U25C A45U U51A | 0.09
C11U U51C A56G C71U | 0.18
C11G U31C A45U | 0.31
C11G U31C G33A | 0.05
C11U A35U U41C U43C A75U | 0.13
C11U U51C U58A A75G | 0.08
C11U U26C U41A C44A U49C | 0.05
C11U G46C U60C | 0.13
C12A A13G A47G A65G G70U U78C | 0.23
C12A C37G A56G U67C U72A | 0.05
C12A U43C U72C U78C | 0.77
C11U A20G U43A G70C U76C | 0.14
C12A A21G U31C G33A C59U U80A | 0.21
C12A A28G U66A U74C | 0.42
C12A A28G U54A U66A | 0.41
C11U U31A U51A | 0.17
C11U U48C U67G | 0.07
C11G U51C A64G A65G U72C | 0.07
C11U A15G A20G G46A | 0.06

Variant | self-cleavage
C11G U43C U72C | 0.3
C11U U26C A45U | 0.09
C11U U43C A47U A57G U69C G73A U80C | 0.03
C11U U25A U72C U80C | 0.45
C12A A13U A15U A21U U49C U69C | 0.05
C11U A35G U67A | 1.07
C11U C23G U31C | 0.05
C12A A56U U58A U69C | 0.14
C11U G24A G61A U66C U72A | 0.11
C11U U31A A45U U76A A77G | 0.09
C12A A21G G42U | 0.24
C11U A13G U25C U41C | 0.3
C11G U69G U80C | 0.34
C11U A21U U25C | 0.04
C12A A15G A28U C32A | 0.09
C11U A21U U54G | 0.06
C11U G24A U54C U78C | 0.04
C11G U48A U54C U78C | 0.07
C11U A20G A28G A45U U49C | 0.18
C12A A13U A15G C32A U72A | 0.08
C11U A20G A35U A56G U60A A75U U78C | 0.28

Variant | self-cleavage
C11U A13U U41A | 0.07
C11G U41C U67C | 0.23
C11U A13G A28G A64G | 0.22
C11U G36A U43C U60A U69A | 0.09
C11U A13G U43C U80C | 0.27
C11G U43G G73C | 0.11
C12A A15U A21G A45U U72C | 0.23
C11G U41C A57G | 0.85
C11U A13G U51A U54C | 0.29
C11U U49C A77G U80G | 0.05
C11U A15U A18U C37A | 0.05
C11U A13G G30A | 0.38
C12A A35G U72C | 1.24
C12A C32U U54C | 0.09
C11U C23U U43C C50U A56U U72A U78C | 0.03
C11U G36C A45U U48A U49C | 0.05
C11G U48C A57U U69A A75G | 0.07
C11U U25C A28C A35G A45U U49A | 0.06
C11U A77G C81U | 0.57
C11G U43G A57G U58C A65G A75G A77U | 0.04
C11U C40A G46U U49A U67C | 0.12

Variant | self-cleavage
C11U A47G U51A U58C | 0.31
C12A U31A U67G U78C | 0.14
C11U U31C C32U U43C C62G | 0.05
C11G U58A U80A | 0.3
C11U G70A U72G | 0.18
C11G U54C U76A | 0.24
C12A A13G A35G C39G U67C C68G | 0.09
C11U U31G U78C | 0.14
C12A U25C C29U A45U A65C A77U | 0.07
C12A U48C C62U C68A U69C U76A | 0.28
C11U A64U U80C | 0.45
C11U G24A U25A A56G U60C U74C | 0.15
C11U U25C U31C U43C A64G U69A | 0.07
C12A U26A A28U U80A | 0.39
C12A C44A U72A | 0.19
C11G U54C A65U U66A | 0.07
C11U U58A U67C | 0.11
C11U C44A U48C | 0.35
C11G U41A A64U | 0.07
C11U G33A C38U A47G A56U A64G | 0.04
